The record followed here is US20250281631A1, “ANTIBODY-DRUG CONJUGATES AND PREPARATION METHODS AND USE THEREOF” (SICHUAN KELUN-BIOTECH BIOPHARMACEUTICAL CO., LTD, priority 2022, published 2025).

One experiment has as its system NCI-H358 cells. The experiment in a line: Cell affinity of anti-human HER3 antibodies and ADCs by flow cytometry. It is filed as binding. As to conditions: Table 32. From the text: (§1) 1. Detection of Cell Affinity of Anti-Human HER3 Antibodies and their Drug Conjugates
(§2) The affinity of anti-human HER3 ADC to MDA-MB-453, NCI-H358, KPL-4, and A431 cells was detected by flow cytometry (Beckman, model Cytoflex).
(§3) Adherent MDA-MB-453, NCI-H358, KPL-4, A431 cells were digested with Tryple (manufacturer: Gibco) solution, counted, and an appropriate amount of the cells were taken, washed twice with 1×PBS, resuspended in 1% BSA in PBS solution, and then transferred to a 96-well sharp-bottom plate, 50 μl per well; candidate antibodies and drug conjugates thereof were diluted with 1% BSA in PBS solution by 3-fold or 2.5-fold serial dilution starting from 5 μg/mL, and then 50 μl of the diluted antibody or antibody-drug conjugate was added to the sharp-bottom plate containing the cells, and incubation was carried out at 4° C. for 40 minutes; the cells were washed twice with PBS, then added with 50 μl of diluted secondary antibody to each well, mixed, and incubated at 4° C. for 30 minutes; the cells were washed with PBS twice, then resuspended in 400 μl of PBS and detected by flow cytometry. Data processing: the average fluorescence signal values were exported, and then input into GraphPad Prism 6 software to calculate EC50. The results were shown in Table 32 and FIGS. 1A, 1B, 1C, and 1D. […] Moreover, when the naked antibody was formed into ADC through conjugation, the affinity to cells was less affected, and the affinity of 22B6 formed into ADC by conjugation was still the highest.
Background: Flow cytometry measures light scatter and fluorescence of single cells or particles in a stream.

The test system of a further experiment is KPL-4 cells. The experiment is described as above. It is filed as binding. As to conditions: Table 32.
Text: as §1, §2, §3

The next experiment has as its system A431 cells. The description is as above. It is filed as binding. As to conditions: Table 32.
Text: as §1, §2, §3

In experiment [1] the test system is NCI-H358 non-small cell lung cancer xenograft model. The experiment can be described thus: In vivo drug efficacy in NCI-H358 CDX model. Set-up: species or system female BALB/c-nu mice. To be noted: 1 mg/kg, 3 administrations, Day 32. The method, then:
5. Detection of In Vivo Drug Efficacy of Anti-Human HER3 Antibody-Drug Conjugates in H358 Model
NCI-H358 cells were cultured at 37° C., 5% CO2 in RPMI1640 medium containing 10% fetal bovine serum. The NCI-H358 cells in the exponential growth phase were collected, resuspended in PBS to an appropriate concentration, and inoculated subcutaneously in female BALB/c-nu mice to establish a non-small cell lung cancer model. When the average volume of the tumor was about 130 to 150 mm^3, the animals were randomly divided into 11 groups according to tumor size, including: vehicle control group (i.e., negative control group), hIgG1-A-01 1 mg/kg group, U1-59-A-01 1 mg/kg group, ADC 22B6-A-01 1 mg/kg group, hIgG1-B-01 1 mg/kg group, ADC 22B6-B-01 1 mg/kg group, hIgG1-A-07-A 1 mg/kg group, ADC 22B6-A-07-A-1 1 mg/kg and 3 mg/kg groups, hIgG1-B-03-1 1 mg/kg group, ADC 22B6-B-03-1 1 mg/kg group. All animals were administered via injection through tail vein on Day 0, Day 1, Day 4 and Day 10, 3 times in total. After administration, the tumor diameter was measured twice a week with a vernier caliper, and the tumor volume was calculated according to the following formula: V=0.5 a×b^2, wherein a and b represented the long and short diameters of the tumor, respectively, and the death of animals was observed and recorded every day.
The following formula was used to calculate the tumor growth inhibition rate TGI (%), which was used to evaluate the tumor inhibitory efficacy:
[formula] • wherein, • VTend represented a mean value of tumor volume at the end of the experiment in a treatment group • VTstart represented a mean value of tumor volume at the beginning of the administration in a treatment group • VCend represented a mean value of tumor volume at the end of the experiment in the negative control group • VCstart represented a mean value of tumor volume at the beginning of the administration in the negative control group

Another experiment has as its system HEK293T-h HER3 cells. The experiment in a line: In vitro cytotoxicity of anti-human HER3 ADCs (CCK8, 6 days). It is filed as cell-based. To be noted: result in words; Table 33, FIGS. 2A-2C. From the text:
2. In Vitro Cytotoxicity of Anti-Human HER3 Antibody-Drug Conjugates

B1: 22B6-A-01: ADC of antibody 22B6D2-hIgG1 conjugated to drug-linker A-01, DAR 7.93 (conjugate)
heavy: EVHLVESGGGVVQPGRSLRLSCATSGFTFRSYGMHWVRQAPGKGLEWVAVIWYDGSNKYYADSVKGRFTISRDISKNTLYLQMNSLTAEDTAVYYCARYYYDSNGYYDAFDIWGQGTMVTVSSASTKGPSVFPLAPSSKSTSGGTAALGCLVKDYFPEPVTVSWNSGALTSGVHTFPAVLQSSGLYSLSSVVTVPSSSLGTQTYICNVNHKPSNTKVDKRV[in this place human IgG1 Fc]
light: DIQLTQSPSFLSASVGDRVTITCRASQGISNYLAWYQQKPGKAPKLLIFAASTLQSGVPSRFSGSGSGAEFTLTISSLEPEDFATYYCQQLNSYPITFGQGTRLEIKRTVAAPSVFIFPPSDEQLKSGTASVVCLLNNFYPREAKVQWKVDNALQSGNSQESVTEQDSKDSTYSLSSTLTLSKADYEKHKVYACEVTHQGLSSPVTKSFNRGEC
As to B1, the EC50 cell affinity was 0.04455 µg/mL in the experiment with NCI-H358 cells, 0.03868 µg/mL with KPL-4 cells and 0.03074 µg/mL in the experiment with A431 cells. In addition, the T/C (commonly the ratio of treated to control) in experiment [1] (tail vein injection) is on record as 40.70%. The inhibition of tumour growth (TGI) (usually the reduction of tumour growth relative to the control group) in experiment [1] (tail vein injection) turned out to be 79.80%. Also, the “Tumor volume (x ± SEM)” value in experiment [1] (tail vein injection) was found to be 213.68 ± 24.79 mm^3. Also, the “tumor growth inhibition rate (TGI)” value in experiment [1] (tail vein) came to 79.80%. In the experiment on HEK293T-h HER3 cells, the target-specific killing effect entry is on record as “target-specific killing effect”.
